For data set [1], the system named is Nalm6-luc cells. The data set is described as follows: RTCC assay with BBMs against Nalm6-luc cells. Conditions: expanded T cells, E:T 3:1, 24 h. The class given is cell-based, human. The procedure: (§1) A RTCC assay with the BBMs of Example 1A was performed to measure the ability of the BBMs to elicit RTCC against CD19+ Nalm6-luc and Karpas422-luc cells. Nalm-6 is a human B cell precursor leukemia cell line and Karpas422 is a human B-cell non-hodgkin lymphoma cell line. Briefly, Nalm6 and Karpas422 cells engineered to express the firefly luciferase reporter gene were cultured in RPMI1640 culture media with 10% fetal bovine serum (FBS). 10,000 target cells with serial diluted BBMs or gH isotype antibody control (αgH-CD3hi) were seeded on 384-well flat-bottom microtiter plate. Primary human T cells were isolated from cryopreserved peripheral blood mononuclear cells (PBMCs) and expanded using anti-CD3 and anti-CD28 dynabeads (Thermo fisher, catalog #11131D) and subsequently cryopreserved. Expanded T cells were thawed and aliquoted to the plate to achieve an effector cell (i.e., T cell) to target cell (i.e., cancer cell) ratio (E:T ratio) of 3:1. Plates were incubated in a 37° C. incubator with 5% CO2 overnight. Following the co-incubation, Bright Glo (Promega, catalog #E2620) was added to all wells and the luminescence signal was subsequently measured on an Envision (Perkin Elmer). Target cells with Bright Glo served as maximal signal. The percent RTCC of target cells was calculated using the following formula: [100−(sample/maximal signal)*100%].

Data set [2] concerns Karpas422-luc cells. The data set is described as follows: RTCC assay with BBMs against Karpas422-luc cells. The class given is cell-based, human. The following applies: expanded T cells, E:T 3:1, 24 h. As to the method: as §1
For data set [3], the system named is T cells. The data set is described as follows: T cell proliferation induced by BBMs (Cell Trace Violet dilution). The class given is cell-based, human. Conditions: co-culture with Karpas422 or Nalm-6 target cells, E:T 1:1, 96 hrs. The procedure: The BBMs described in Example 1A, containing the variable regions of NEG258 and NEG218, were evaluated for their ability to induce T cell proliferation upon co-culture with CD19 expressing target cells. Briefly, Karpas422 and Nalm-6 target cells stably expressing firefly luciferase were irradiated on the day of the assay and plated at a density of 60,000 cells per well in a Costar 96 well plate (Corning, Cat #3904) in T Cell Media (TCM) [RPMI-1640 (ThermoFisher Scientific, Cat #11875-085), 10% FBS (Seradigm, Cat #1500-500), 1% L-Glutamine (Thermo Fisher Scientific, Cat #25830-081), 1% Non Essential Amino Acids (Thermo Fisher Scientific, Cat #11140-050), 1% Pen/Strep (Thermo Fisher Scientific, Cat #15070063), 1% HEPES (Thermo Fisher Scientific, Cat #15630080), Sodium Pyruvate (Thermo Fisher Scientific, Cat #11360-070), 0.1% Beta-mercaptoethanol (Thermo Fisher Scientific, Cat #21985-023)]. Peripheral blood mononuclear cells (PBMCs) previously isolated from Leukopak donors (Hemacare) and cryopreserved were thawed and Pan T cells were isolated by negative selection using the Pan T cell Isolation Kit, human [Miltenyi Biotec, Cat #130-096-535] following the manufacturer's protocol. Isolated T cells were labelled with 5 μM Cell Trace Violet (CTV) (Thermo Fisher Scientific, Cat #C34557) following the manufacturer's protocol and 60,000 CTV labeled T cells were co-cultured with 60,000 target cells to achieve an E:T ratio of 1:1. A dilution series of the NEG258- and NEG218-based BBMs and control binding molecules (αgH-CD3hi) ranging from 16 pM-10,000 pM was added to cells and the plates were incubated in a 5% CO2, 37° C. incubator for 96 hrs. […] The samples were then run on BD LSR Fortessa and analyzed using FlowJo to determine % proliferated CD3+ T cells based on CD3 staining and dilution of Cell Trace Violet dye.

Data set [4] has as its system OCI-LY-19 DLBCL subcutaneous tumor. The data set is described as follows: OCI-LY-19 DLBCL subcutaneous tumor model in huCD34+ NSG mice, single dose, dose range finding (Example 30). Conditions: 0.01 mg/kg, single dose IV.

B1: NEG258-based BBM: BBM of Example 1A: anti-CD19 Fab with NEG258 variable regions and CD3hi anti-CD3 scFv, knob-into-hole hIgG1 (antibody)
heavy: QVQLVQSGAEVKKPGASVKVSCKASGYTFTTYWIQWVRQAPGQRLEWMGAVYPGDADTRYTQKFQGRVTLTADRSASTAYMELSSLRSEDTAVYYCGRDAGLEYYALDYWGQGTLVTVSSASTKGPSVFPLAPSSKSTSGGTAALGCLVKDYFPEPVTVSWNSGALTSGVHTFPAVLQSSGLYSLSSVVTVPSSSLGTQTYICNVNHKPSNTKVDKRVEPKSCDKTHTCPPCPAPELLGGPSVFLFPPKPKDTLMISRTPEVTCVVVAVSHEDPEVKFNWYVDGVEVHNAKTKPREEQYASTYRVVSVLTVLHQDWLNGKEYKCKVSNKALAAPIEKTISKAKGQPREPQVCTLPPSREEMTKNQVSLSCAVKGFYPSDIAVEWESNGQPENNYKTTPPVLDSDGSFFLVSKLTVDKSRWQQGNVFSCSVMHEALHNHYTQKSLSLSPGK
light: EIVMTQSPATLSVSPGERATLSCRASQDVGTAVAWYQQKPGQAPRLLIYWASTRHTGIPARFSGSGSGTEFTLTISSLQSEDFAVYFCQQYANFPLYTFGQGTKLEIKRTVAAPSVFIFPPSDEQLKSGTASVVCLLNNFYPREAKVQWKVDNALQSGNSQESVTEQDSKDSTYSLSSTLTLSKADYEKHKVYACEVTHQGLSSPVTKSFNRGEC
scFv: EVQLVESGGGLVQPGGSLKLSCAASGFTFNTYAMNWVRQASGKGLEWVGRIRSKYNNYATYYADSVKDRFTISRDDSKSTLYLQMNSLKTEDTAVYYCVRHGNFGNSYVSWFAYWGQGTLVTVSSGGGGSGGGGSGGGGSGGGGSQAVVTQEPSLTVSPGGTVTLTCRSSTGAVTTSNYANWVQQKPGQAPRGLIGGTNKRAPWTPARFSGSLLGDKAALTLSGAQPEDEAEYFCALWYSNLWVFGGGTKLTVLGGGGSDKTHTCPPCPAPELLGGPSVFLFPPKPKDTLMISRTPEVTCVVVAVSHEDPEVKFNWYVDGVEVHNAKTKPREEQYASTYRVVSVLTVLHQDWLNGKEYKCKVSNKALAAPIEKTISKAKGQPREPQVYTLPPCREEMTKNQVSLWCLVKGFYPSDIAVEWESNGQPENNYKTTPPVLDSDGSFFLYSKLTVDKSRWQQGNVFSCSVMHEALHNRYTQKSLSLSPGK
Turning to B1, the RTCC activity entry in data set [1] and in data set [2] was “mediated RTCC activity” throughout. Moreover, in data set [3], the “T cell proliferation (% proliferated CD3+ T cells)” value is given as “induced proliferation of T cells”. For the same molecule, in data set [3], the “T cell proliferation, potency compared between BBMs” value is “more potent activity than the NEG218-based BBM”.

B2: CD3hi-TSP1 (antibody)
heavy: QVQLVQSGAEVKKPGASVKVSCKASGYTFTTYWIQWVRQAPGQRLEWMGAVYPGDADTRYTQKFQGRVTLTADRSASTAYMELSSLRSEDTAVYYCGRDAGLEYYALDYWGQGTLVTVSSASTKGPSVFPLAPSSKSTSGGTAALGCLVKDYFPEPVTVSWNSGALTSGVHTFPAVLQSSGLYSLSSVVTVPSSSLGTQTYICNVNHKPSNTKVDKRVEPKSCGGGGSGGGGSEVQLVESGGGLVQPGGSLKLSCAASGFTFNTYAMNWVRQASGKGLEWVGRIRSKYNNYATYYADSVKDRFTISRDDSKSTLYLQMNSLKTEDTAVYYCVRHGNFGNSYVSWFAYWGQGTLVTVSSGGGGSGGGGSGGGGSGGGGSQAVVTQEPSLTVSPGGTVTLTCRSSTGAVTTSNYANWVQQKPGQAPRGLIGGTNKRAPWTPARFSGSLLGDKAALTLSGAQPEDEAEYFCALWYSNLWVFGGGTKLTVLGGGGSDKTHTCPPCPAPELLGGPSVFLFPPKPKDTLMISRTPEVTCVVVAVSHEDPEVKFNWYVDGVEVHNAKTKPREEQYASTYRVVSVLTVLHQDWLNGKEYKCKVSNKALAAPIEKTISKAKGQPREPQVCTLPPSREEMTKNQVSLSCAVKGFYPSDIAVEWESNGQPENNYKTTPPVLDSDGSFFLVSKLTVDKSRWQQGNVFSCSVMHEALHNHYTQKSLSLSPGK
light: EIVMTQSPATLSVSPGERATLSCRASQDVGTAVAWYQQKPGQAPRLLIYWASTRHTGIPARFSGSGSGTEFTLTISSLQSEDFAVYFCQQYANFPLYTFGQGTKLEIKRTVAAPSVFIFPPSDEQLKSGTASVVCLLNNFYPREAKVQWKVDNALQSGNSQESVTEQDSKDSTYSLSSTLTLSKADYEKHKVYACEVTHQGLSSPVTKSFNRGEC
chain: SQQIYGVVYGNVTFHVPSNVPLKEVLWKKQKDKVAELENSEFRAFSSFKNRVYLDTVSGSLTIYNLTSSDEDEYEMESPNITDTMKFFLYVLESGGGGSDKTHTCPPCPAPELLGGPSVFLFPPKPKDTLMISRTPEVTCVVVAVSHEDPEVKFNWYVDGVEVHNAKTKPREEQYASTYRVVSVLTVLHQDWLNGKEYKCKVSNKALAAPIEKTISKAKGQPREPQVYTLPPCREEMTKNQVSLWCLVKGFYPSDIAVEWESNGQPENNYKTTPPVLDSDGSFFLYSKLTVDKSRWQQGNVFSCSVMHEALHNHYTQKSLSLSPGK
In the case of B2, in data set [4], the “Δ Body weight from initial (Mean ± SEM) Day 24” value turned out to be 4.54 ± 2.25% and the “Δ Tumor burden from initial (Mean ± SEM) Day 24” value was found to be 1110.7 ± 201.7 mm^3. This molecule also gave a ΔT/ΔC in data set [4] (Day 24) of 100%.

B3: NEG218-based BBM: BBM of Example 1A: anti-CD19 Fab with NEG218 variable regions and CD3hi anti-CD3 scFv, knob-into-hole hIgG1 (antibody)
heavy: EVQLVQSGAEVKKPGESLKISCKASGYSFTNYWMNWVRQMPGKGLEWMGMIHPSDSEIRLNQKFQGQVTLSVDKSIGTAYMQWSSLKASDTAMYYCSRWYYLSSPMDYWGQGTTVTVSSASTKGPSVFPLAPSSKSTSGGTAALGCLVKDYFPEPVTVSWNSGALTSGVHTFPAVLQSSGLYSLSSVVTVPSSSLGTQTYICNVNHKPSNTKVDKRVEPKSCDKTHTCPPCPAPELLGGPSVFLFPPKPKDTLMISRTPEVTCVVVAVSHEDPEVKFNWYVDGVEVHNAKTKPREEQYASTYRVVSVLTVLHQDWLNGKEYKCKVSNKALAAPIEKTISKAKGQPREPQVCTLPPSREEMTKNQVSLSCAVKGFYPSDIAVEWESNGQPENNYKTTPPVLDSDGSFFLVSKLTVDKSRWQQGNVFSCSVMHEALHNHYTQKSLSLSPGK
light: EIVMTQSPATLSVSPGERATLSCRASQDVGTAVAWYQQKPGQAPRLLIYWASTRHTGIPARFSGSGSGTEFTLTISSLQSEDFAVYFCQQYSSYPYTFGQGTKLEIKRTVAAPSVFIFPPSDEQLKSGTASVVCLLNNFYPREAKVQWKVDNALQSGNSQESVTEQDSKDSTYSLSSTLTLSKADYEKHKVYACEVTHQGLSSPVTKSFNRGEC
scFv: EVQLVESGGGLVQPGGSLKLSCAASGFTFNTYAMNWVRQASGKGLEWVGRIRSKYNNYATYYADSVKDRFTISRDDSKSTLYLQMNSLKTEDTAVYYCVRHGNFGNSYVSWFAYWGQGTLVTVSSGGGGSGGGGSGGGGSGGGGSQAVVTQEPSLTVSPGGTVTLTCRSSTGAVTTSNYANWVQQKPGQAPRGLIGGTNKRAPWTPARFSGSLLGDKAALTLSGAQPEDEAEYFCALWYSNLWVFGGGTKLTVLGGGGSDKTHTCPPCPAPELLGGPSVFLFPPKPKDTLMISRTPEVTCVVVAVSHEDPEVKFNWYVDGVEVHNAKTKPREEQYASTYRVVSVLTVLHQDWLNGKEYKCKVSNKALAAPIEKTISKAKGQPREPQVYTLPPCREEMTKNQVSLWCLVKGFYPSDIAVEWESNGQPENNYKTTPPVLDSDGSFFLYSKLTVDKSRWQQGNVFSCSVMHEALHNRYTQKSLSLSPGK
As for B3, the RTCC activity result in data set [1] and in data set [2] was “mediated RTCC activity” in each case. In addition, the “T cell proliferation (% proliferated CD3+ T cells)” value in data set [3] was “induced proliferation of T cells”.

The values are drawn from US12221481B2, “CD19 binding molecules and uses thereof” (Novartis AG, priority 2019, dated 2025).
